Structures are written as SMILES. Where “and” joins values, the source holds several entries; their conditions need not be identical. Identical values can stand only once. Counter-ions that a name gives are not always drawn. Screen size: about 1,800 compounds; about 50 (3%) showed activity. Some of the results follow.
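Note: fibroblasts sorted 14 days after bleomycin, GFP+ and GFP− mixed 1:1 in 384-well plates (GFP− as in-well control), imaged after Hoechst and NucView530 staining, reference wells lacked compound.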

The assay has as its system mouse p16Ink4a+/- lung fibroblasts (INKBRITE, bleomycin-injured). In words: percentage of GFP+ (p16Ink4a+) fibroblasts among all cells in well; higher = less depletion of p16Ink4a+ cells, active = 20 or less. The settings on record: 1 µM; 3 days.
`CN1C(CCl)Nc2cc(Cl)c(S(N)(=O)=O)cc2S1(=O)=O` (centres undefined) [Methyclothiazide]: the “percentage of GFP+” value was inactive: 41.4%.
The value for `CC(C(=O)O)c1ccc2c(c1)Cc1cccnc1O2` (centres undefined) [Pranoprofen] was inactive: 39%; that for `CCOC(=O)[C@H](CCc1ccccc1)N[C@@H](C)C(=O)N1Cc2cc(OC)c(OC)cc2C[C@H]1C(=O)O` [Moexipril] was inactive: 44.9%.
As for `C[C@@](Cc1ccc(O)c(O)c1)(NN)C(=O)O` [S-(-)-carbidopa, Carbidopa], the “percentage of GFP+” value is inactive: 47.3%.
The value for `Cc1c(-c2ccc(O)cc2)n(Cc2ccc(OCCN3CCCCCC3)cc2)c2ccc(O)cc12` [Bazedoxifene] was inactive: 47.1%; that for `COC(=O)[C@]12CCC(C)(C)C[C@@H]1[C@@H]1C(=O)C=C3[C@]4(C)C=C(C#N)C(=O)C(C)(C)[C@@H]4CC[C@@]3(C)[C@]1(C)CC2` [Bardoxolone Methyl] was active: 5.23%; that for `C#C[C@]1(OC(C)=O)CC[C@H]2[C@@H]3CCC4=C[C@@H](OC(C)=O)CC[C@@H]4[C@H]3CC[C@@]21C` [Ethynodiol Diacetate] was inactive: 52.1%.
Regarding `CC(C)(C)c1ccc(-c2nc3ccccc3[nH]2)cc1`, the “percentage of GFP+” value was inactive: 38.6%.
Regarding `NC(=O)[C@@H](CCC(F)(F)F)N(Cc1ccc(-c2ncon2)cc1F)S(=O)(=O)c1ccc(Cl)cc1` [Avagacestat], the “percentage of GFP+” value is inactive: 49.9%.
As for `COC(=O)[C@H]1[C@H]2C[C@@H]3c4[nH]c5cc(OC)ccc5c4CCN3C[C@H]2C[C@@H](OC(=O)c2cc(OC)c(OC)c(OC)c2)[C@@H]1OC` [Reserpine], the figure is inactive: 36.2%; as for `Cc1ccc(C(=O)Nc2cccc(C(F)(F)F)c2)cc1Nc1nc(-c2cccnc2)nc2c1cnn2C`, inactive: 37.9%; as for `O=C1[C@H](CC[C@H](O)c2ccc(F)cc2)[C@@H](c2ccc(O)cc2)N1c1ccc(F)cc1` [Ezetimibe], inactive: 41.4%.
As for `CC(C)OC(=O)C(C)(C)Oc1ccc(C(=O)c2ccc(Cl)cc2)cc1` [Fenofibrate], the figure is inactive: 45.5%; as for `COc1cc(C2Oc3ccc(C4Oc5cc(O)cc(O)c5C(=O)C4O)cc3OC2CO)ccc1O` (centres undefined) [Silymarin], inactive: 46.3%; as for `Oc1c(Cl)cc(Cl)c2cccnc12` [Chloroxine], inactive: 38.3%.
`O=C(O)CCNC(=O)c1ccccc1` [Betamipron]: the “percentage of GFP+” value is inactive: 46%.
The value for `COc1cc([C@@H]2c3cc4c(cc3[C@@H](O[C@@H]3O[C@@H]5CO[C@@H](C)O[C@H]5[C@H](O)[C@H]3O)[C@H]3COC(=O)[C@H]23)OCO4)cc(OC)c1O` [Etoposide] was active: 19.3%; that for `Cn1cnc([N+](=O)[O-])c1Sc1ncnc2[nH]cnc12` [Azathioprine] was inactive: 43.6%.
As for `COC(=O)[C@H](Cc1ccccc1)NC(=O)[C@@H](N)CC(=O)O` [Aspartame], the figure is inactive: 44.2%; as for `CCNC(=O)c1noc(-c2cc(C(C)C)c(O)cc2O)c1-c1ccc(CN2CCOCC2)cc1` [Luminespib (NVP-AUY922)], active: 6.33%; as for `Cc1cc(C(C)Nc2ccccc2)c2nc(N3CCOCC3)cc(=O)n2c1` (centres undefined), inactive: 48.7%.
Regarding `CO/N=C(/C(=O)N[C@@H]1C(=O)N2C(C(=O)O)=C(CSC(=O)c3ccco3)CS[C@H]12)c1csc(N)n1` [Ceftiofur HCl], the “percentage of GFP+” value is inactive: 39.5%.
Regarding `O=NN(CCCl)C(=O)NC1CCCCC1` [Lomustine], the “percentage of GFP+” value was inactive: 40.6%.
With `O=C(Nc1ccc(-c2ccnc(Nc3ccc(N4CCOCC4)cc3)n2)cc1)[C@@H]1CCCN1`, the “percentage of GFP+” value was inactive: 42.6%.
The value for `c1coc(CNc2ncnc3[nH]cnc23)c1` [Kinetin] was inactive: 41.6%; that for `Oc1ccc(-c2nc(-c3ccc(F)cc3)c(-c3ccncc3)[nH]2)cc1` was inactive: 44.2%.
The value for `CCC(C)(Oc1ccc(C2(c3ccc(OC(C)(CC)C(=O)O)cc3)CCCCC2)cc1)C(=O)O` (centres undefined) [Clinofibrate] was inactive: 52.6%; that for `C=CC(=O)Nc1ccc2ncnc(Nc3cccc(Br)c3)c2c1` was inactive: 43.9%; that for `NC(=O)Nc1cc(-c2cccc(F)c2)sc1C(=O)N[C@H]1CCCNC1` was inactive: 24%.
On to `CN1CCN(S(=O)(=O)c2ccc(-c3cnc(N)c(C(=O)Nc4cccnc4)n3)cc2)CC1`, for which the “percentage of GFP+” value was inactive: 24%.
The value for `O=C(Nc1ccccc1)N1CCN(c2nc(-c3ccccc3)ns2)CC1` was inactive: 52%; that for `O=C(NCCN1CCOCC1)c1ccc(Cl)cc1` [Moclobemide] was inactive: 49.7%.
The value for `C=CC(=O)Nc1cccc(Nc2nc(Nc3ccc(Oc4ccnc(C(=O)NC)c4)cc3)ncc2F)c1` was inactive: 46.4%.
The value for `NC[C@H](O)c1ccc(O)c(O)c1` [Norepinephrine] was inactive: 31.9%.
In the case of `COCCCN1CCC(NC(=O)c2cc(Cl)c(N)c3c2OCC3)CC1` [Prucalopride], the “percentage of GFP+” value is inactive: 46.2% and inactive: 35.5%.
On to `COc1ccc(-c2nc(N3CCOCC3)c3sc(CN(C)c4ncc(C(=O)NO)cn4)cc3n2)cn1` [Fimepinostat], for which the “percentage of GFP+” value is active: 3.62%.
The value for `CCOC(=O)[C@H](CCc1ccccc1)N[C@H]1CCc2ccccc2N(CC(=O)O)C1=O` [Benazepril] was inactive: 48.5%; that for `CC(C)(C)c1cc(C(C)(C)C)c(NC(=O)c2cnc3ccccc3c2O)cc1O` [Ivacaftor] was inactive: 38%; that for `CCOc1ccccc1O[C@H](c1ccccc1)[C@H]1CNCCO1` [Reboxetine] was inactive: 42.5%.
The value for `COc1ccc(-n2nc(C(N)=O)c3c2C(=O)N(c2ccc(N4CCCCC4=O)cc2)CC3)cc1` [Apixaban] was inactive: 47.6%; that for `Nc1nc(OCc2cc(Br)cs2)c2[nH]cnc2n1` [Lomeguatrib] was inactive: 42.4%; that for `CC1(C)CCC2=C(O1)c1ccccc1C(=O)C2=O` [beta-Lapachone] was inactive: 49.7%.
With `Nc1nc(O)c2ncn(COCCO)c2n1` [Aciclovir], the “percentage of GFP+” value was inactive: 45.4%.
Take `Cc1ccc(=O)n(-c2ccccc2)c1` [Pirfenidone]: the “percentage of GFP+” value is inactive: 46%.
For `CCc1cccc(CC)c1NC(=O)N1Cc2[nH]nc(NC(=O)c3ccc(N4CCN(C)CC4)cc3)c2C1`, the “percentage of GFP+” value was inactive: 39.6%.
Turning to `COc1cc(NC(=O)c2ccc(-c3ccc(Cl)cc3)o2)cc(OC)c1`, the “percentage of GFP+” value is inactive: 52%.
The value for `Nc1ccn([C@@H]2O[C@H](CO)[C@@H](O)[C@H]2O)c(=O)n1` [Cytidine] was inactive: 48.9%.
As for `CC1Cc2ccccc2N1NC(=O)c1ccc(Cl)c(S(N)(=O)=O)c1` (centres undefined) [Indapamide], the figure is inactive: 45.4%; as for `O=C(O)P(=O)(O)O` [Foscarnet], inactive: 45.3%.
As for `FC(F)(F)c1ccc(/C=C/c2nc(COc3ccc(CCCCn4ccnn4)cc3)co2)cc1` [Mubritinib], the figure is inactive: 39.2%; as for `Cc1ccc(S(=O)(=O)Cc2nc(-c3ccc(C(=O)NCc4cccnc4)cc3)oc2C)cc1`, inactive: 23.2%.
As for `COc1cc(NC(=O)c2ccccn2)ccc1Cl`, the “percentage of GFP+” value is inactive: 40.1%.
Turning to `CC(C)(CO)[C@@H](O)C(=O)NCCC(=O)O` [Pantothenic Acid], the “percentage of GFP+” value was inactive: 42.7%.
The value for `OCCn1cc(-c2ccc3c(c2)CC/C3=N\O)c(-c2ccncc2)n1` was inactive: 32.8%.
As to `COc1cc(OC)c(NC(=O)Nc2cc(C)on2)cc1Cl`, the “percentage of GFP+” value was inactive: 47.9%.
In the case of `OCc1ccccc1O[C@@H]1O[C@H](CO)[C@@H](O)[C@H](O)[C@H]1O` [Salicin], the “percentage of GFP+” value is inactive: 50.5%.
On to `N#CC(c1ccc(Cl)cc1)c1c(Cl)cc(-n2ncc(=O)[nH]c2=O)cc1Cl` (centres undefined) [Diclazuril], for which the “percentage of GFP+” value was inactive: 33.8%.
The value for `CCCCc1ncc(/C=C(\Cc2cccs2)C(=O)O)n1Cc1ccc(C(=O)O)cc1` [Eprosartan] was inactive: 50.3%; that for `O=c1ccc2ccccc2o1` was inactive: 39.3%.
The value for `O=c1ccc2ccc(O)c(O)c2o1` [Daphnetin] was inactive: 39.9%.
The value for `Cc1nc(N)sc1-c1ccnc(Nc2ccc(N3CCOCC3)cc2)n1` was inactive: 40%; that for `COc1ccc([C@H]2CNC(=O)C2)cc1OC1CCCC1` [(S)-Rolipram] was inactive: 42.2%; that for `Cc1nc(C(=O)NCC(=O)O)c(O)c2ccc(Oc3ccccc3)cc12` was inactive: 43%.
Consider `CC(C)n1c(/C=C/[C@@H](O)C[C@@H](O)CC(=O)O)c(-c2ccc(F)cc2)c2ccccc21` [Fluvastatin], for which the “percentage of GFP+” value is active: 19.7%.
As for `Cc1ccc(N(CC2=NCCN2)c2cccc(O)c2)cc1` [Phentolamine], the figure is inactive: 45.6%; as for `O=c1cc(N2CCOCC2)oc2c(-c3cccc4c3sc3ccccc34)cccc12`, inactive: 30%.
For the compound `COc1cc(-c2cc(-c3cccc(O)c3)cnc2N)cc(OC)c1OC`, the “percentage of GFP+” value is inactive: 48.2%.
`O=C(Nc1cc(C(F)(F)F)ccc1N1CCCCC1)c1ccncc1`: the “percentage of GFP+” value is inactive: 39.9%.
As for `Cc1cc(C)c2c(c1)[C@@H](N(Cc1cc(C(F)(F)F)cc(C(F)(F)F)c1)c1nnn(C)n1)CCCN2C[C@H]1CC[C@H](C(=O)O)CC1` [Evacetrapib], the figure is inactive: 44.9%; as for `CO[C@H]1C[C@@H]2CC[C@@H](C)[C@@](O)(O2)C(=O)C(=O)N2CCCC[C@H]2C(=O)O[C@H]([C@H](C)C[C@@H]2CC[C@@H](O)[C@H](OC)C2)CC(=O)[C@H](C)/C=C(\C)[C@@H](O)[C@@H](OC)C(=O)[C@H](C)C[C@H](C)/C=C/C=C/C=C/1C` [Rapamycin], inactive: 37.8%; as for `c1ccc(NCc2ccc(CNc3ccccn3)cc2)nc1`, inactive: 47.2%.
`CN1CCN(CCOc2cc(OC3CCOCC3)c3c(Nc4c(Cl)ccc5c4OCO5)ncnc3c2)CC1` [Saracatinib]: the “percentage of GFP+” value was inactive: 46.2%.
Turning to `Cc1cc(C)nc(NS(=O)(=O)c2ccc(N)cc2)n1` [Sulfamethazine], the “percentage of GFP+” value was inactive: 54.2%.
In the case of `Cn1c(=O)cc(N2CCC[C@@H](N)C2)n(Cc2cc(F)ccc2C#N)c1=O` [Trelagliptin], the “percentage of GFP+” value is inactive: 44.1%.

Source of the values: the supplement of paper PMC11060735.
